Legend:
[1] = target: T1, human Nectin-4 extracellular antigen (Nectin-4-His) (Homo sapiens, UniProt Q96NY8); assay: Affinity measurement by SPR (BIAcore T200, Protein A chip capture); format: binding
T1 construct: albumin signal peptide (replaces the native Nectin-4 signal peptide) (N); made in house
T1 sequence (Q96NY8 with tags, fused parts or gaps): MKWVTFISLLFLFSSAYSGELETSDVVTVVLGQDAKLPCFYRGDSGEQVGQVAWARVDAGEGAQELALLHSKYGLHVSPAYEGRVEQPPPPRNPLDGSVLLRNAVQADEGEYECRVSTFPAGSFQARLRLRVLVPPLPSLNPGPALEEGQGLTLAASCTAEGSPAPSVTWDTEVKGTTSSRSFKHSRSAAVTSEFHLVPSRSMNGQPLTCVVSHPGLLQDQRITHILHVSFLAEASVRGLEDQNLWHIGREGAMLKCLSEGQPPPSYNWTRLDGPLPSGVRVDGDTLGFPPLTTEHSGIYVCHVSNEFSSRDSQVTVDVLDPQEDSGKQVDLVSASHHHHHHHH
Protocol: The candidate antibodies (ASG-22 and ASG-AM) were analyzed for their affinity for the human Nectin-4 extracellular antigen using surface plasmon resonance (SPR) technology (BIAcore: GE Healthcare, T200).
The capture was conducted on a Protein A chip (Cat #29127556, GE Healthcare): Antibody dilutions ([…]) were directed through the experimental flow channels (Fc2 and Fc4) at a flow rate of 10 μL/min for 10 s. Then antigen Nectin-4-His (prepared from Example 1) dilutions at different concentrations (0 nM, 1.23 nM, 3.7 nM, 11.1 nM, 33.3 nM, and 100 nM) were sequentially introduced with the flow rate adjusted to 30 μL/min through the surfaces of the experimental flow channels (Fc2 and Fc4) and reference flow channels (Fc1 and Fc3) with 120 s of association and 180 s of dissociation. Finally, the chip regenerated in Glycine 1.5. Fitting and analysis were performed using BiaEvaluation 3.2, with a 1:1 model for the fitting.

[2] = target: T1, human Nectin-4 extracellular antigen (Nectin-4-His); assay: Affinity measurement by BLI (Octet QKe, Protein A biosensor); format: binding
Protocol: The affinity of candidate antibodies (ASG-22 and ASG-AM) for the human Nectin-4 extracellular antigen was detected using the bio-layer interferometry (BLI) technology on the Octet platform (Fortebio, Octet QKe).
Antibodies were loaded onto a Protein A biosensor (Fortebio, 18-5010) at a concentration of 20 μg/mL with a loading time of 60 s. Nectin-4-His antigen concentrations were set at 200 nM, 100 nM, 50 nM, 25 nM, and 0 nM. The antigen association time was 180 s, and the dissociation time was 200 s. Data were then processed and analyzed using Acquisition 8.2 to give affinity constants (see Table 4).

[3] = system: T-47D cells; assay: Binding of antibody to T-47D cells by FACS; design: species or system human; details: 3-fold dilutions from 100 nM, 4° C.
Protocol: The binding activity of antibody ASG-AM to T-47D cells (human ductal breast carcinoma cells, sourced from the Cell Bank of the Chinese Academy of Sciences, Cat. No.: TCHu 87) was detected by FACS and compared with that of the reference antibody ASG-22. The EC50 of the binding of candidate antibodies to the cells was analyzed using the four-parameter method. The method is briefly described as follows: T-47D cells were digested with pancreatin. Each candidate antibody was serially 3-fold diluted from 100 nM and co-incubated with T-47D cells at 4° C. for 0.5-1 h. Subsequently, a PE-labeled anti-human Fc secondary antibody (Invitrogen, 12-4998-82) was added. The signal intensity of the red fluorescence was detected by a flow cytometer. Graphpad Prism was used for plotting and calculating the EC50.

[4] = system: T-47D cells; assay: Endocytosis assay by FACS (antibody remaining on cell surface); format: cell-based, human; details: 10 μg/mL antibody
Protocol: The relative quantity of antibodies remaining on the cell surface after incubation at 37° C. for a certain period was detected by FACS to reflect the efficiency of endocytosis. The method is briefly described as follows: T-47D cells (human ductal breast carcinoma cells, sourced from the Cell Bank of the Chinese Academy of Sciences, Cat. No.: TCHu 87) were used. Each test antibody was adjusted to a concentration of 10 μg/mL and co-incubated with cells (at a density of 0.5×10^6 cells/mL) on ice for 1 h for binding. The cells were washed thrice with pre-cooled PBS and then incubated at 37° C. for 0 h, 2 h, and 4 h. The endocytosis reaction was terminated with 0.2% N3Na, and the cells were washed thrice with PBS. Subsequently, a PE-labeled anti-human Fc secondary antibody (Invitrogen 12-4998-82) was added, and the cells were incubated at 4° C. for 30 min. The red fluorescence signal was detected by a flow cytometer.

B1: ASG-AM: anti-Nectin-4 antibody; heavy chain SEQ ID NO: 12, light chain SEQ ID NO: 14 (antibody)
heavy: EVQLVESGGGLVQPGGSLRLSCAASGFTFSSYNMNWVRQAPGKGLEWVSYISSSSSTIYYADSVKGRFTISRDNAKNSLSLQMNSLRDEDTAVYYCARAYYYGMDVWGQGTLVTVSS[human IgG1 constant region not spelt out]
light: DIQMTQSPSSVSASVGDRVTITCRASQGISGWLAWYQQKPGKAPKFLIYAASTLQSGVPSRFSGSGSGTDFTLTISSLQPEDFATYYCQQAGPGWVFGQGTKVEIKRTVAAPSVFIFPPSDEQLKSGTASVVCLLNNFYPREAKVQWKVDNALQSGNSQESVTEQDSKDSTYSLSSTLTLSKADYEKHKVYACEVTHQGLSSPVTKSFNRGEC
B1 was tested, and the “affinity as compared with the reference antibody ASG-22” value [1] was “significant increase in affinity”, the Ka ([1]; 1:1 model fit) was 298000 M⁻¹ s⁻¹ and the Rmax ([1]; 1:1 model fit) was 197.9 RU. For the same molecule, the Kd ([1]; 1:1 model fit, dissociation rate) was 0.000535 s⁻¹, the Rmax [2] was 0.6488 and the “affinity compared with the reference antibody ASG-22” value [2] was “significantly improved affinity”. The kdis [2] was 2.38e-05 s⁻¹, the kon [2] was 89600 M⁻¹ s⁻¹ and the “binding curves to T-47D cells” value [3] was “substantially consistent”. The “red fluorescence signal at 0 h” value ([4]; 37° C. for 0 h) was 23561.0, the “Endocytosis at 2 h” value ([4]; 37° C. for 2 h) was 45.98% and the “red fluorescence signal at 2 h” value ([4]; 37° C. for 2 h) was 12727.3. For the same molecule, the “Endocytosis at 4 h” value ([4]; 37° C. for 4 h) was 79.46% and the “red fluorescence signal at 4 h” value ([4]; 37° C. for 4 h) was 4840.
